107 compounds from PubChem BioAssay AID488969 (Vanderbilt High Throughput Screening Facility, 2010) can be followed below.

In all, about 110,000 compounds were measured (“z-score”: median about -0.1, highest 2% from about 2 on). The list shows a part of the results. Residues, ends and D or L forms follow the SMILES beside them. *: point of attachment. Boc = CC(C)(C)OC(=O)*

This assay has as its target Metabotropic glutamate receptor 8 (Rattus norvegicus) (UniProt P70579). Nature of the assay: rat mGluR8 modulators via GIRK flux, primary screen, cell-based, thallium flux, HTS (AID 488969). The settings on record: HEK293 rat mGluR8, GIRK (G protein-gated inwardly rectifying potassium channel) thallium flux, FluoZin2; at 10 µM; stronger effect = higher value; submaximal glutamate (EC20) added with thallium.
Chain of UniProt P70579 (P70579 whole entry, looked up): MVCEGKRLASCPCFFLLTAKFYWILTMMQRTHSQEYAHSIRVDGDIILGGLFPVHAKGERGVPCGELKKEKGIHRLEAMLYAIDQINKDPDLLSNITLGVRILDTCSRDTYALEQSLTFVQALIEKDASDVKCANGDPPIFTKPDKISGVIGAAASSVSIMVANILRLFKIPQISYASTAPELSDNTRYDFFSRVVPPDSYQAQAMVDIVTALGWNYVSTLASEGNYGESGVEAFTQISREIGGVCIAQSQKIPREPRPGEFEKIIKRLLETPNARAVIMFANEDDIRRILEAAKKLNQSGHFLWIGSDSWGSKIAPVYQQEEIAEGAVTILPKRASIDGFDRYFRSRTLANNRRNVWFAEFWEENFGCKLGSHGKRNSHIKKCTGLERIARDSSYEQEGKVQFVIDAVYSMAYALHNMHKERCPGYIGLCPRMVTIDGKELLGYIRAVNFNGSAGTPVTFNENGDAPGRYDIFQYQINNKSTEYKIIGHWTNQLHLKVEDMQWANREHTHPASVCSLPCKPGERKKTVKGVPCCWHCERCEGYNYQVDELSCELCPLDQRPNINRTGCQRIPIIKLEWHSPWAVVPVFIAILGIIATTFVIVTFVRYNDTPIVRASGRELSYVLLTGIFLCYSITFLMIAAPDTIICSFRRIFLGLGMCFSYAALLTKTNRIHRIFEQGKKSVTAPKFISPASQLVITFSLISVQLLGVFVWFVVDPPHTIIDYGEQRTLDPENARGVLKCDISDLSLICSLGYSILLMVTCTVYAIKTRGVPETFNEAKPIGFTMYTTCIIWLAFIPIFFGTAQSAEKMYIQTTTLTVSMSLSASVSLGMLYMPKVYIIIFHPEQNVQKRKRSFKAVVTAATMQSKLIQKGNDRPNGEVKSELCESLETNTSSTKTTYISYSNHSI
Consider `O=C(Nc1cccc(Cl)c1Cl)c1snnc1-c1ccccc1`, for which the z-score is -0.245.

As to `CS(=O)(=O)c1ccc(C(=O)OCC(=O)NC23CC4CC(CC(C4)C2)C3)cc1[N+](=O)[O-]`, the z-score was -0.241. The figure for `CCCCCCn1c(SCCC)nc2c1c(=O)[nH]c(=O)n2C` is -0.205. In the case of `Cc1ccc(NC(=O)COc2ccccc2CNC(C)(C)CC(C)(C)C)cc1` it was -0.282; in that of `COc1ccccc1-c1nnc(SCC(=O)O)n1C`, -0.182.

Compound `Cc1ccc(NS(=O)(=O)c2cccc(C(=O)O)c2)cc1S(=O)(=O)N1CCOCC1` gave a z-score of -0.184. In the case of `COc1ccc(C2=NNC(c3cccs3)=Nc3ccc(OC)cc32)cc1` it was -0.175; in that of `CCOC(=O)C(Cc1ccccc1)NC(=O)CCc1c(C)nc2ncnn2c1C` (configuration not stated), 0.11. In the case of `CCc1ccc(N(C(=O)c2csnn2)C(C(=O)NCc2ccccc2)c2ccco2)cc1` (configuration not stated) it was -0.816.

Turning to `O=c1ccnc(Sc2ncccc2[N+](=O)[O-])[nH]1`, the z-score was -0.0558.

Consider `CNC(=O)c1nc(C)n(-c2cc(Cl)ccc2Cl)n1`, for which the z-score was found to be 0.33. In the case of `CCOC(=O)CNC(=O)CSc1nc(N)cc(N)n1` it was -0.0826; in that of `COc1ccc(NC(=O)Nc2nccs2)cc1`, 0.158. In the case of `CS(=O)(=O)N(CC(=O)N/N=C/c1cccs1)c1cccc(Cl)c1Cl` it was -0.706; in that of `CCCC1CCC(=NNC(=O)CNc2ccc(OC)cc2)CC1` (configuration not stated), 0.000791; in that of `COc1ccc(C)cc1NC(=O)COC(=O)Cc1ccc(-c2ccccc2)cc1`, -0.0516. `CCOC1(OCC)N=C(N)C2(C#N)C(c3cccc(C)c3)C12C#N` (configuration not stated) had a z-score of 1.46.

Take `Cc1ccc(S(=O)(=O)N(C)C)cc1-n1c(SCC(=O)Nc2ccc(F)c(F)c2F)nc2ccccc2c1=O`: the z-score was -0.563. In the case of `O=C1/C(=C\c2ccco2)SC(=S)N1c1ccccc1` it was -0.0829; in that of `O=C(CCN1C(=O)/C(=C/c2ccc3c(c2)OCO3)SC1=S)Nc1ccccc1`, 0.11; in that of `CC(OC(=O)c1cc(S(=O)(=O)N(C)c2ccccc2)ccc1Cl)C(=O)Nc1ccc2c(c1)OCCO2` (configuration not stated), 0.0164. The figure for `O=C(O)c1ccc(C(=O)c2ccc3c(c2)C(=O)N(Cc2ccco2)C3=O)cc1` is -0.873. `COc1cc2cc(C)c(SCC(=O)N3CCOCC3)nc2cc1OC` showed a z-score of -0.234. As to `Cc1nc(SCc2ccc(Br)cc2)[nH]c(=O)c1C`, the z-score is -0.743. `O=c1[nH]c(CCl)nc2cc(-c3ccc(Cl)cc3)sc12` yielded a z-score of -0.12. In the case of `O=C1NC(c2ccco2)Nc2sc3c(c21)CCN(Cc1ccccc1)C3` (configuration not stated) it was -0.668; in that of `CC(=O)Nc1ccc(Oc2cnccn2)cc1`, -0.0949. In turn, `COc1ccc(OC)c(C2C3CN(C(C)C)CC=C3C(C#N)=C(N)C2(C#N)C#N)c1` (configuration not stated) registered a z-score of -0.554. In the case of `O=C(Nc1cc(SCCO)cc([N+](=O)[O-])c1)c1ccco1` it was -0.182; in that of `CN(C)S(=O)(=O)c1ccc(NC(=O)COC(=O)c2n[nH]c3ccccc23)cc1`, 0.415. In the case of `COCCNC(=O)C(C)N(c1ccc(Oc2ccccc2)cc1)S(C)(=O)=O` (configuration not stated) it was -0.016; in that of `Cc1ccc2nc(Cc3ccc(N)cc3)oc2c1`, -0.338. The figure for `Cc1ccc(-c2nnn(CC(=O)N(Cc3ccccc3)C(C(=O)NC(C)(C)C)c3ccncc3)n2)o1` (configuration not stated) is -0.495; for `O=C(CSc1nc(-c2ccccc2)c(-c2ccccc2)o1)Nc1nncs1` it is -0.201; for `Cc1nc2ccccc2c(=O)n1/N=C/c1ccc(N(C)C)cc1` it is -0.544. Compound `COC(=O)c1c(C)cc(OC(C)=O)c(C)c1OC(C)=O` returned a z-score of 0.576.

The compound `COc1ccc(C(CC(=O)NCc2ccccc2)Sc2n[nH]c(-c3ccccc3)n2)cc1` (configuration not stated) had a z-score of -0.187.

In the case of `Cc1nn(-c2ccccc2)c(Cl)c1/C=N/Nc1nc2ccccc2[nH]1`, the z-score is -0.0698. In the case of `CCc1ccccc1NC(=O)c1cc(C2CC2)on1` it was -0.652; in that of `Cc1ccc2cc(C3C(C#N)=C(N)Oc4c3ccc3cccnc43)c(=O)[nH]c2c1` (configuration not stated), -0.345; in that of `COc1cccc(NC(=O)CC2S/C(=N\S(=O)(=O)c3ccccc3)N(c3ccccc3)C2=O)c1` (configuration not stated), -0.34. The figure for `COc1cccc(NS(=O)(=O)c2ccc3[nH]cc(C(=O)NC4CC4)c(=O)c3c2)c1` is -0.131; for `c1coc(CNC2C3CC4CC(C3)CC2C4)c1` (configuration not stated) it is 0.183. `COc1ccc(NC(=O)c2cccc(F)c2)cc1Cl` had a z-score of -0.393. In the case of `c1cnc(SCCOc2cccc3ccccc23)nc1` it was 0.0807; in that of `NC(=O)c1ccsc1NC(=O)CSc1nnc(C2CC2)n1Cc1ccccc1`, -0.337; in that of `C=CCNc1nc(NCC)nc(N2CCOCC2)n1`, 0.853. In the case of `CCCNc1nc(Nc2ccc(C)cc2)nc(N2CCCC2)n1` it was -0.473. In the case of `COc1ccc(C(=O)NCc2ccc(-c3nc4ccccc4s3)cc2)cc1` it was -0.135; in that of `OC(Cn1cncn1)(c1ccccc1)c1ccccc1`, -0.0537; in that of `COc1ccc(C(=O)Nc2ccc(S(=O)(=O)N3CCCC3)cc2)c(OC)c1`, -0.158. `C=C(C)CSc1nnc(-c2cccc(Cl)c2)n1N` gave a z-score of -0.354. Regarding `Cc1noc(C)c1CSc1nnc2ccc3ccccc3n12`, the z-score worked out at 0.171. The figure for `Cc1ccnc(NS(=O)(=O)c2ccc(N=CC3=C(O)CC(C)(C)CC3=O)cc2)n1` is -0.367; for `CC(NC(=O)Nc1ccccc1)C(c1ccccc1)N1CCOCC1` (configuration not stated) it is -0.595. In the case of `CC(C)Cc1nnc(NS(=O)(=O)Cc2ccccc2)s1` it was -0.297.

Consider `COCCCNC(=O)CC(NS(=O)(=O)c1ccc(C)cc1)c1ccco1` (configuration not stated), for which the z-score was 0.38. For the compound `Oc1ccc(/C=N/NC(=S)NCc2ccco2)cc1`, the z-score was 0.806.

The compound `CCN(CC)CCNC(=O)c1ccc(NC2=NC3CS(=O)(=O)CC3S2)cc1` (configuration not stated) showed a z-score of 0.618. Take `COc1ccccc1N1CCN(C2CCN(C(=O)COc3cccc(C)c3)CC2)CC1`: the z-score is -0.105. In the case of `O=C(Nc1ccc(-c2nc3ccccc3s2)c(OC(=O)c2ccccc2)c1)c1ccccc1` it was -0.23; in that of `O=[N+]([O-])c1ccccc1S(=O)(=O)n1nnc2ccccc21`, 0.18. The figure for `Cc1ccc(N2CC(C(=O)Nc3ccc(S(=O)(=O)N4CCOCC4)cc3)CC2=O)cc1` (configuration not stated) is 0.556.

Consider `COc1ccc([N+](=O)[O-])cc1N(CC(O)CN(CC(C)C)CC(C)C)S(=O)(=O)c1ccccc1` (configuration not stated), for which the z-score is -0.186.

For `CC(C)Oc1ccc(Cn2c(=O)sc3ccccc32)cc1`, the z-score is 0.0408. The figure for `CCC(C)C(NC(=O)OC(C)(C)C)C(=O)NC(C(=O)N1CCCC1C(N)=O)C(C)CC` (stereo not drawn) (Boc-Ile-Ile-Pro-NH2; configuration not given here) is 0.174.

Compound `Cn1c(=O)c([N+](=O)[O-])c(NCCc2ccccc2)c2ccccc21` showed a z-score of 0.381. Compound `O=C(NO)c1cc(OCC(F)(F)F)ccc1OCC(F)(F)F` showed a z-score of -0.161.

As to `CCOc1ccccc1C(=O)Nn1c(C2CCC2)nc2ccccc2c1=O`, the z-score is -0.734.

Take `O=C(O)CC1(Cc2nc(-c3cccs3)no2)CCCC1`: the z-score was -1.18. In the case of `Cc1cccc(CC(=O)OCn2nnc3ccccc3c2=O)c1` it was -1.17; in that of `Cc1ccc(C(=O)CN(Cc2ccccc2)C2=NCCS2)cc1`, 0.177.

The compound `COc1ccc(/C=N/NC(=O)CO/N=C(\C)c2cccs2)cc1` gave a z-score of 0.0451. In the case of `C/C(=N\NC(=O)c1ccc(CN2CCOCC2)cc1)c1ccc([N+](=O)[O-])cc1` it was -1.25; in that of `Cc1ccc(CNC(=O)CSc2nnnn2C)cc1`, -0.128; in that of `COc1nc(C)nc(NC(=O)NS(=O)(=O)c2ccc(C)cc2)n1`, 1.06. In the case of `CSCCC(NC(=O)COc1ccccc1)C(=O)OCC(=O)c1cc2ccccc2o1` (configuration not stated) it was -0.092. In the case of `COC(=O)c1ccccc1NS(=O)(=O)c1cn(C)c(=O)n(C)c1=O` it was -0.262.

Compound `CC(C)Oc1cccc(C(=O)Nc2ccc(NC(=O)c3ccco3)cc2)c1` showed a z-score of 0.325. The figure for `O=C(N/N=C/c1cccc(Oc2ccc([N+](=O)[O-])cc2[N+](=O)[O-])c1)c1cncc(Br)c1` is -0.266. The figure for `CCOC(=O)c1cn(-c2nc(-c3ccc(Cl)c(Cl)c3)cs2)c2c(F)c(N3CCOCC3)c(F)cc2c1=O` is -0.188; for `O=C(Nc1ccccc1Sc1ccccc1)C1CCCO1` (configuration not stated) it is -0.775; for `Cn1c(=O)c2c(-c3ccc(C(C)(C)C)cc3)n(N3CCOCC3)cc2n(C)c1=O` it is -0.0582. The figure for `CSc1ccc(/C=C(/NC(=O)c2ccc(C)cc2)C(=O)Nc2cccc(C)c2)cc1` is -0.0464; for `N#CCCN1CCN(C(CNS(=O)(=O)c2ccc(Cl)cc2)c2ccccc2)CC1` (configuration not stated) it is -0.0968.

Take `O=C(CN1CCN(Cc2ccc(Cl)cc2)C1=O)NCCCN1CCN(c2ccc(F)cc2)CC1`: the z-score is -0.0961. The figure for `C=CCNC(=O)C12CC3CC(C1)CC(C(=O)NCC=C)(C3)C2` is -0.432; for `CCn1c(C)nc2cc(C(=O)NNC(=O)CCC3CCCC3)ccc21` it is -0.0689; for `COc1cc(NC(=S)Nc2ccccn2)cc(OC)c1` it is -0.278. In the case of `CCOC(=O)Cc1csc(SCC(=O)Nc2cccc(Cl)c2)n1` it was 0.368. The figure for `Cc1cc(C)n(C(=O)CNC(=O)CCc2ccccc2)n1` is -0.136; for `CCC(=O)N(CCC(c1ccco1)c1ccccc1OC)Cc1cccs1` (configuration not stated) it is -0.395. For the compound `Cc1cnc(C)c(N2CCC(C(=O)NC(C)c3cccs3)CC2)n1` (configuration not stated), the z-score worked out at 0.307. `CC1(C)NC(=O)N(CCSc2ccc(Cl)cc2)C1=O` came in with a z-score of -0.257. In the case of `CCCOC(=O)/C=C/c1c(C)[nH]c(=O)[nH]c1=O` it was -1.15; in that of `O=C(Cn1nc(CNc2ccc(Cl)cc2)[n+]2c1CCCCC2)c1ccc(Br)cc1`, 0.0544. The figure for `COc1ccccc1N1CCN(CCCC(=O)c2ccc(F)cc2)CC1` is -0.123; for `O=C(N/N=C/C=C/c1ccccc1)C1CC1(c1ccccc1)c1ccccc1` (configuration not stated) it is -0.153. In turn, `Cc1cc(C)n2c(Nc3ccc4c(c3)OCCO4)c(-c3ccc(C)o3)nc2n1` came in with a z-score of -1.17. The figure for `CCCN(CCC)CCNS(=O)(=O)c1ccc2c(c1)oc(=O)n2C` is -0.41. For `COC(=O)Cn1c(C)nc2c(sc3nc(C)cc(C)c32)c1=O`, the z-score was -0.232. The figure for `CCN(CC)CCN1C(=O)C(O)=C(C(C)=O)C1c1ccc(OC)c(OC)c1` (configuration not stated) is -0.175; for `CCOc1ccc(N2C(=O)CC(Sc3nc(-c4cccs4)cc(C(F)(F)F)c3C#N)C2=O)cc1` (configuration not stated) it is -0.248.

Compound `C(=N\Nc1ncnc2sc3c(c12)CCC3)/c1ccncc1` had a z-score of -0.0869. The figure for `CC(C)(C)c1nnc2sc(SCC(=O)c3ccc(Cl)cc3)nn2c1=O` is -0.209; for `O=C(CSc1nnc(-c2ccco2)o1)c1ccc(F)c(F)c1` it is 0.152. In the case of `CCn1c(SCC(=O)Nc2nc(C)c(C)s2)nc2cccnc21` it was 0.0817.
